Measurements: publication PMC11631451
Results are given in words; binding and its absence hold for the method and conditions named. In cells and extracts the contact can be indirect. Some results given as binding are weak or reduced against the parent protein; the word gives no strength. Each block holds one molecule with its values, some of them ahead of it.

By UniProt entry, the sequences of proteins in these tests, tags left out. Where a name states a change or a piece, a line headed by the entry shows the natural chain unless it says otherwise.
UniProt O60934: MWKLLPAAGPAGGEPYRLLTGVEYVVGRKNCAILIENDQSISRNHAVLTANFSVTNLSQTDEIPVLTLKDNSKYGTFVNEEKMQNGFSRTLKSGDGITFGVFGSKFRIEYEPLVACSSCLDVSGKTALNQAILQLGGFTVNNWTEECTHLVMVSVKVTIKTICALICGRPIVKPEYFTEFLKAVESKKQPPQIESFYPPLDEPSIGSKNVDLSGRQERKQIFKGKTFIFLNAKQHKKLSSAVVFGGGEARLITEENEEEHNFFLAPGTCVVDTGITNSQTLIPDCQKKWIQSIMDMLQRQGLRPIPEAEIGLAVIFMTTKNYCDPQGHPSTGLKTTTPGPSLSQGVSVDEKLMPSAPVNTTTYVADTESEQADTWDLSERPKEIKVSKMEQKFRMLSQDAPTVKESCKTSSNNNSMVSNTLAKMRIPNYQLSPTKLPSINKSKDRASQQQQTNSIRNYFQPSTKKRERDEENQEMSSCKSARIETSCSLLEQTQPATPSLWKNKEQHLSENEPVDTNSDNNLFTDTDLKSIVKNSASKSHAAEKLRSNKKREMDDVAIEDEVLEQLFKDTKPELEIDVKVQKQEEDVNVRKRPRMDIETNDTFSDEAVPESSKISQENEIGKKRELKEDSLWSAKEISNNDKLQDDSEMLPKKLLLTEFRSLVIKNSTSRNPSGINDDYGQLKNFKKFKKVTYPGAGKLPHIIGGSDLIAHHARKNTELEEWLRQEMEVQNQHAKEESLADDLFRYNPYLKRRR
UniProt P46100: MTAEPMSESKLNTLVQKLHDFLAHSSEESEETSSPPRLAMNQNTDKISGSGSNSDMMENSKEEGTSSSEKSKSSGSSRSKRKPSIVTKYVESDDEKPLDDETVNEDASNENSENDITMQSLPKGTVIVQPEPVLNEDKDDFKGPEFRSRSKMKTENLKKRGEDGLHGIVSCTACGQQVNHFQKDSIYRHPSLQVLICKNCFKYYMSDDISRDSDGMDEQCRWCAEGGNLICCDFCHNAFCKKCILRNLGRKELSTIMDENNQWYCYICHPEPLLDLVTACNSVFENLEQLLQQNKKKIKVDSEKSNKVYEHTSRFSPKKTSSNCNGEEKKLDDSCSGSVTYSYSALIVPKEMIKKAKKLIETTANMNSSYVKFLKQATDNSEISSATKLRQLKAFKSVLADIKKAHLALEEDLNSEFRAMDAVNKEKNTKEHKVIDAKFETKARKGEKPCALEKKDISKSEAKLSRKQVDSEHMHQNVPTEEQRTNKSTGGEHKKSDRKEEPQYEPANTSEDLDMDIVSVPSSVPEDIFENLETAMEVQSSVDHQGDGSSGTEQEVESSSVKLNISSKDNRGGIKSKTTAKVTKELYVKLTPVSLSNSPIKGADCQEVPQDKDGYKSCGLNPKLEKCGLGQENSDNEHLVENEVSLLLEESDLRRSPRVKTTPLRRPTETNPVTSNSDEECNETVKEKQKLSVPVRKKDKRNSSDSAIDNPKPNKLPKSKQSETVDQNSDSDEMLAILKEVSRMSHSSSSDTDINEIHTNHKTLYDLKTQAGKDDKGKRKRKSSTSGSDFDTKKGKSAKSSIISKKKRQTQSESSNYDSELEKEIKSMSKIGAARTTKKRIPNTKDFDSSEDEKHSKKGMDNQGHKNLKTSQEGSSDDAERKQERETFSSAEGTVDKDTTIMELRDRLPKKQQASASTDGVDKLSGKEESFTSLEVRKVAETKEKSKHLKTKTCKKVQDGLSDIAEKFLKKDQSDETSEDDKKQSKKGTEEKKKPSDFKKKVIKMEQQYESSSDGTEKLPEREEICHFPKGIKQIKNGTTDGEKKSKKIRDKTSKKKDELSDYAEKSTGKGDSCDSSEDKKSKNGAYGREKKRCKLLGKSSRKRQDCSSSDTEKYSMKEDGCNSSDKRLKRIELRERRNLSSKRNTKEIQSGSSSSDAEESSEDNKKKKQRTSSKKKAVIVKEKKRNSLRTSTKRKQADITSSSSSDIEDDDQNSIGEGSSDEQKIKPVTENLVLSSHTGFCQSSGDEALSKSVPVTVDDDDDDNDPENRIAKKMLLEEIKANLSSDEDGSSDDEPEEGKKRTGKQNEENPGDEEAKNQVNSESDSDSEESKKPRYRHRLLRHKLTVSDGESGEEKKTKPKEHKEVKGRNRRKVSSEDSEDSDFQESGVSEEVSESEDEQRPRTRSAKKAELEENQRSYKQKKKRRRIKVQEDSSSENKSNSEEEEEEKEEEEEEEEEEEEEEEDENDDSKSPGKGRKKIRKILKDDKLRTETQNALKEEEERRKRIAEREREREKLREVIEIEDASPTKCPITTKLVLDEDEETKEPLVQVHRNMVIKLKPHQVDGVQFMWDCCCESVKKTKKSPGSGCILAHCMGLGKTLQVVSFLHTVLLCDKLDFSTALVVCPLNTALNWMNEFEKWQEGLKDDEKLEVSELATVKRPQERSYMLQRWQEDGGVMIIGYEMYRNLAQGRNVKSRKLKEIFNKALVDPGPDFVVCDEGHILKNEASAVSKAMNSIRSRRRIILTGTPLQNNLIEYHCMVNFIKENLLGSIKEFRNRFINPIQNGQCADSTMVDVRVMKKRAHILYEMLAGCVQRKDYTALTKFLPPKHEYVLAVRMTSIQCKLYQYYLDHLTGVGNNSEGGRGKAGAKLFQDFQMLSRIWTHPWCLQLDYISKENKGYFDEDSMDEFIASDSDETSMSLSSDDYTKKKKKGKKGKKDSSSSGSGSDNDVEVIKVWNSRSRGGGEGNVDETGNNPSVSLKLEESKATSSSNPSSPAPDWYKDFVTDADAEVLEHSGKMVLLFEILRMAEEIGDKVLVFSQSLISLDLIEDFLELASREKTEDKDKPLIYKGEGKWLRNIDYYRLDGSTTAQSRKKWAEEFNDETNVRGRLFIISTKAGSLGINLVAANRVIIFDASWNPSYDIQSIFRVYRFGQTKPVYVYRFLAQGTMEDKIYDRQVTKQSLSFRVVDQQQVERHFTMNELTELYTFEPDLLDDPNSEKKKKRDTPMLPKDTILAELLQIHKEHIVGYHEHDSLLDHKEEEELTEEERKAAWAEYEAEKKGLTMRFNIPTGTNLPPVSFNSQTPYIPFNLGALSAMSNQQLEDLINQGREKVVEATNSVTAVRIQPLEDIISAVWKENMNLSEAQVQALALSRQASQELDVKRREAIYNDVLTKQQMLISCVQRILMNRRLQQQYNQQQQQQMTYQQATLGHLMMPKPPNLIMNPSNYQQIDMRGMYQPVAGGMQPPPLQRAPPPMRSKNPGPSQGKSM
UniProt Q14676: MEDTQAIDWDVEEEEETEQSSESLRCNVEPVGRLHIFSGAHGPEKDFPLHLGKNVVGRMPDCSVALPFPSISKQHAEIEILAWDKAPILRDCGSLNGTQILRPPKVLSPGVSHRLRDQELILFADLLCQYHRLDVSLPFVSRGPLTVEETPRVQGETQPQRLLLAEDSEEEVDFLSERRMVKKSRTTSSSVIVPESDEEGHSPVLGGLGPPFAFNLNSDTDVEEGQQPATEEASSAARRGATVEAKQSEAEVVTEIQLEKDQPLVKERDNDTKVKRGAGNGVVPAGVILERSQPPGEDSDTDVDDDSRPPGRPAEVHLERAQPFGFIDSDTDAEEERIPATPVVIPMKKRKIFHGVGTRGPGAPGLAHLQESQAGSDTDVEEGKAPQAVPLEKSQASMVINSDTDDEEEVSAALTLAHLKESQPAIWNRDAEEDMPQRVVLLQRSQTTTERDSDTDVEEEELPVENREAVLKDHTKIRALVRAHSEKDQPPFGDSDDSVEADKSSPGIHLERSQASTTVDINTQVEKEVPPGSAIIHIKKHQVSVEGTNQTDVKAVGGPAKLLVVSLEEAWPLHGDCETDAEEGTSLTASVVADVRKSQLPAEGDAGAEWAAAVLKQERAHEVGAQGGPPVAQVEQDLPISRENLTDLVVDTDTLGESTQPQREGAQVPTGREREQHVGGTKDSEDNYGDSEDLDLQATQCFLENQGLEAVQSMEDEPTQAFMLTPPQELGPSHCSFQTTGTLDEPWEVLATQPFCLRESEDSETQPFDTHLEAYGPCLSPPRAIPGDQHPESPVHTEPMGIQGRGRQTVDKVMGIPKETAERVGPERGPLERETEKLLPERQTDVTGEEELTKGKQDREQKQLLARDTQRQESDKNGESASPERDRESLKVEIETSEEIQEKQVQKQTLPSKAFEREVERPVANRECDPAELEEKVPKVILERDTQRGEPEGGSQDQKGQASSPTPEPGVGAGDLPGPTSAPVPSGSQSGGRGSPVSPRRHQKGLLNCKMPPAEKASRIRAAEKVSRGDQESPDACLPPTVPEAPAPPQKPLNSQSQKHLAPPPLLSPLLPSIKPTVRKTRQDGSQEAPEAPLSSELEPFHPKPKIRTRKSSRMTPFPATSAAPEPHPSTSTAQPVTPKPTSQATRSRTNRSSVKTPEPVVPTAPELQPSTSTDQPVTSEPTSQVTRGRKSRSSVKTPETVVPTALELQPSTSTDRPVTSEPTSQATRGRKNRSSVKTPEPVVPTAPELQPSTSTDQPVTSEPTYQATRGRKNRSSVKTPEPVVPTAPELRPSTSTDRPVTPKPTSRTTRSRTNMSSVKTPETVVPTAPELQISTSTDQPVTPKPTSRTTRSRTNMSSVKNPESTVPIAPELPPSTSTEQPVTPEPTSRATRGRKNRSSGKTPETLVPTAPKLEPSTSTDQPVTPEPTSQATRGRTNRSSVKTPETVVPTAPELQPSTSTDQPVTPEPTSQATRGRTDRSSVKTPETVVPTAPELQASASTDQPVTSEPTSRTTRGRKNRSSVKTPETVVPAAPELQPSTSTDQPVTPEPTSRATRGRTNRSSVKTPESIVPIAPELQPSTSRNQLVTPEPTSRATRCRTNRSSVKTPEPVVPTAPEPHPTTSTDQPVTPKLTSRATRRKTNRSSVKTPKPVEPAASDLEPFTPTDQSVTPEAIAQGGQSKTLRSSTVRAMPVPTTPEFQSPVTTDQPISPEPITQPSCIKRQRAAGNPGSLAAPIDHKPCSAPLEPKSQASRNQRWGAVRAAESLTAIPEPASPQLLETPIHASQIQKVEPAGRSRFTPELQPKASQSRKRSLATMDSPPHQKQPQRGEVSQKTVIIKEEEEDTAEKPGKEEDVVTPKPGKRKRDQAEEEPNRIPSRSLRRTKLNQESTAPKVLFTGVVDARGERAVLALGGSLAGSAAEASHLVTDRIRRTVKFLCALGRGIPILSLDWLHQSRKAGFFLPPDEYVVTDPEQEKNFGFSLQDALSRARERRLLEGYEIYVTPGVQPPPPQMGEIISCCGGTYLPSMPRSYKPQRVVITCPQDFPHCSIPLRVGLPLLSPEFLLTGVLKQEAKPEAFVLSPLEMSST

Columns and labels:
[1] = target: YFP-NBS1[K160M] (UniProt O60934); assay: co-IP; YFP-pulldown (reverse pulldown): lysates of HEK-293FT cells transfected with YFP-NBS1 wild type, R28A or K160M, Benzonase-treated, on GFP-trap magnetic agarose beads 2 h at 4°C; endogenous partners detected by immunoblot
[2] = target: YFP-NBS1[WT] (UniProt O60934); assay: as above
[3] = target: YFP-NBS1[R28A] (UniProt O60934); assay: as above
[4] = target: GFP-tagged ATRX (GFP-ATRX WT) (UniProt P46100); assay: co-IP; GFP-pulldown: lysates of HEK-293FT cells transfected with GFP-ATRX constructs, Benzonase-treated, on GFP-trap magnetic agarose beads 2 h at 4°C, four washes with IP lysis buffer; endogenous partners detected by immunoblot
[5] = target: GFP-tagged ATRX (GFP-ATRX WT), P46100; assay: as above; conditions: remark: other sources report otherwise

Molecule: NBS1 (from UniProt O60934 1-754)
binding [4]: binds

B2: RAD50, Q92878 1-1312 (protein)
chain: MSRIEKMSILGVRSFGIEDKDKQIITFFSPLTILVGPNGAGKTTIIECLKYICTGDFPPGTKGNTFVHDPKVAQETDVRAQIRLQFRDVNGELIAVQRSMVCTQKSKKTEFKTLEGVITRTKHGEKVSLSSKCAEIDREMISSLGVSKAVLNNVIFCHQEDSNWPLSEGKALKQKFDEIFSATRYIKALETLRQVRQTQGQKVKEYQMELKYLKQYKEKACEIRDQITSKEAQLTSSKEIVKSYENELDPLKNRLKEIEHNLSKIMKLDNEIKALDSRKKQMEKDNSELEEKMEKVFQGTDEQLNDLYHNHQRTVREKERKLVDCHRELEKLNKESRLLNQEKSELLVEQGRLQLQADRHQEHIRARDSLIQSLATQLELDGFERGPFSERQIKNFHKLVRERQEGEAKTANQLMNDFAEKETLKQKQIDEIRDKKTGLGRIIELKSEILSKKQNELKNVKYELQQLEGSSDRILELDQELIKAERELSKAEKNSNVETLKMEVISLQNEKADLDRTLRKLDQEMEQLNHHTTTRTQMEMLTKDKADKDEQIRKIKSRHSDELTSLLGYFPNKKQLEDWLHSKSKEINQTRDRLAKLNKELASSEQNKNHINNELKRKEEQLSSYEDKLFDVCGSQDFESDLDRLKEEIEKSSKQRAMLAGATAVYSQFITQLTDENQSCCPVCQRVFQTEAELQEVISDLQSKLRLAPDKLKSTESELKKKEKRRDEMLGLVPMRQSIIDLKEKEIPELRNKLQNVNRDIQRLKNDIEEQETLLGTIMPEEESAKVCLTDVTIMERFQMELKDVERKIAQQAAKLQGIDLDRTVQQVNQEKQEKQHKLDTVSSKIELNRKLIQDQQEQIQHLKSTTNELKSEKLQISTNLQRRQQLEEQTVELSTEVQSLYREIKDAKEQVSPLETTLEKFQQEKEELINKKNTSNKIAQDKLNDIKEKVKNIHGYMKDIENYIQDGKDDYKKQKETELNKVIAQLSECEKHKEKINEDMRLMRQDIDTQKIQERWLQDNLTLRKRNEELKEVEEERKQHLKEMGQMQVLQMKSEHQKLEENIDNIKRNHNLALGRQKGYEEEIIHFKKELREPQFRDAEEKYREMMIVMRTTELVNKDLDIYYKTLDQAIMKFHSMKMEEINKIIRDLWRSTYRGQDIEYIEIRSDADENVSASDKRRNYNYRVVMLKGDTALDMRGRCSAGQKVLASLIIRLALAETFCLNCGIIALDEPTTNLDRENIESLAHALVEIIKSRSQQRNFQLLVITHDEDFVELLGRSEYVEKFYRIKKNIDQCSEIVKCSVSSLGFNVH
binding [5]: binds

Further lines, results first:

binding [1]: no binding | binding [2]: binds | binding [3]: no binding
Molecule: ATRX (endogenous) (from UniProt P46100 1-2492)

binding [1]: no binding | binding [2]: binds | binding [3]: no binding
Molecule: MDC1 (from UniProt Q14676 1-2089)

binding [5]: binds
B1: MRE11, P49959 1-708 (protein)
chain: MSTADALDDENTFKILVATDIHLGFMEKDAVRGNDTFVTLDEILRLAQENEVDFILLGGDLFHENKPSRKTLHTCLELLRKYCMGDRPVQFEILSDQSVNFGFSKFPWVNYQDGNLNISIPVFSIHGNHDDPTGADALCALDILSCAGFVNHFGRSMSVEKIDISPVLLQKGSTKIALYGLGSIPDERLYRMFVNKKVTMLRPKEDENSWFNLFVIHQNRSKHGSTNFIPEQFLDDFIDLVIWGHEHECKIAPTKNEQQLFYISQPGSSVVTSLSPGEAVKKHVGLLRIKGRKMNMHKIPLHTVRQFFMEDIVLANHPDIFNPDNPKVTQAIQSFCLEKIEEMLENAERERLGNSHQPEKPLVRLRVDYSGGFEPFSVLRFSQKFVDRVANPKDIIHFFRHREQKEKTGEEINFGKLITKPSEGTTLRVEDLVKQYFQTAEKNVQLSLLTERGMGEAVQEFVDKEEKDAIEELVKYQLEKTQRFLKERHIDALEDKIDEEVRRFRETRQKNTNEEDDEVREAMTRARALRSQSEESASAFSADDLMSIDLAEQMANDSDDSISAATNKGRGRGRGRRGGRGQNSASRGGSQRGRADTGLETSTRSRNSKTAVSASRNMSIIDAFKSTRQQPSRNVTTKNYSEVIEVDESDVEEDIFPTTSKTDQRWSSTSSSKIMSQSQVSKGVDFESSEDDDDDPFMNTSSLRRNRR
